Laboratory results from article PMC9663165.
No constants are given. Whether binding was seen depends on the method and setting. Some binding calls cover weakened binding; strength is not graded here.

Amino acid sequences for entries named in this document (tags omitted). A change or cut given only in a name is not applied to a line headed by its entry. Chains listed by the source or under a name are the forms on record and can include a tag or linker. Residues count along the entry.
full-length human p75 neurotrophin receptor fused at the cytoplasmic C-terminus to GFP (P08138, residues 29-427): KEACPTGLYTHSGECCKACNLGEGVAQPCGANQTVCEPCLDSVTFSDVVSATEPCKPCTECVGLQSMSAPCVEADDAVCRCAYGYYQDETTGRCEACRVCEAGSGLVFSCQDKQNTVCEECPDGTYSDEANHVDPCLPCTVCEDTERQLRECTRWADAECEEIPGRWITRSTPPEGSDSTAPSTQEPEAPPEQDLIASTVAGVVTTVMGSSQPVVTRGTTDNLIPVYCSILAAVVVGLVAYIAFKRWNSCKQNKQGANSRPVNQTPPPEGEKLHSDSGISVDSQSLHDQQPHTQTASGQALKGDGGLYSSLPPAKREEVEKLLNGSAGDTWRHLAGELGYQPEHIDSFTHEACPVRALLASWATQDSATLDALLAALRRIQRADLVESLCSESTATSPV
p75^NTR S137H (P08138, form named): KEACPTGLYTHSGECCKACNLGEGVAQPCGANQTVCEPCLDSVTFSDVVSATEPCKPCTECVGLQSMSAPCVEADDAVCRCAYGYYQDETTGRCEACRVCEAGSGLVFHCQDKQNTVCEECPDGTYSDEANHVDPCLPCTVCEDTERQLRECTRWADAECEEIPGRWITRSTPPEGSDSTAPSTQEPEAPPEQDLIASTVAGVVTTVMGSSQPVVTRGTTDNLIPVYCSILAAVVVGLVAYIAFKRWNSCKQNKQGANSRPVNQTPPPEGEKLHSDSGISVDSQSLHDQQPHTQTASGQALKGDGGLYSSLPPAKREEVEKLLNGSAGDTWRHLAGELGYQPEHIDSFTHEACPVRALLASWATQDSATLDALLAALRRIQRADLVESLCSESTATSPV
p75^NTR F136K (P08138, form named): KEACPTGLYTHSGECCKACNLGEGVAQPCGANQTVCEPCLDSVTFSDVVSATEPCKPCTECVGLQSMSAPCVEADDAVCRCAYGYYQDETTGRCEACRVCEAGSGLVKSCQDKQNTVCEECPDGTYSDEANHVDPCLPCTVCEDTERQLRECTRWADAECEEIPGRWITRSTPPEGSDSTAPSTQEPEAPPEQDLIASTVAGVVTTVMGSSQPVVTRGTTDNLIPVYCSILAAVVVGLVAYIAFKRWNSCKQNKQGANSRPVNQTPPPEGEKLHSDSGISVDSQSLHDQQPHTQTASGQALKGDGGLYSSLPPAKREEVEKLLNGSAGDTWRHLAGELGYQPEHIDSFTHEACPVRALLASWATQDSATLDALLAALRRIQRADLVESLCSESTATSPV
p75^NTR R182H (P08138, form named): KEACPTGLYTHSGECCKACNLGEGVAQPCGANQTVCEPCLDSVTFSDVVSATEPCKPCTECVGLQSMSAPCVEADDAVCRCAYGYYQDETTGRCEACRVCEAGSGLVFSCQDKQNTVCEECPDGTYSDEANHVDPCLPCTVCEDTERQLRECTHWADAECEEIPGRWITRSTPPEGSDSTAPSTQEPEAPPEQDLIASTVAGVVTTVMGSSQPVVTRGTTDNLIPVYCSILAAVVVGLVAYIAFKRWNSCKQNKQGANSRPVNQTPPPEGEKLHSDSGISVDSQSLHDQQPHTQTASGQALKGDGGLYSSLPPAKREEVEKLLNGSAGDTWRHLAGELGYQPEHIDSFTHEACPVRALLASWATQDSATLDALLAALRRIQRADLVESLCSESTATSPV
p75^NTR P166H (P08138, form named): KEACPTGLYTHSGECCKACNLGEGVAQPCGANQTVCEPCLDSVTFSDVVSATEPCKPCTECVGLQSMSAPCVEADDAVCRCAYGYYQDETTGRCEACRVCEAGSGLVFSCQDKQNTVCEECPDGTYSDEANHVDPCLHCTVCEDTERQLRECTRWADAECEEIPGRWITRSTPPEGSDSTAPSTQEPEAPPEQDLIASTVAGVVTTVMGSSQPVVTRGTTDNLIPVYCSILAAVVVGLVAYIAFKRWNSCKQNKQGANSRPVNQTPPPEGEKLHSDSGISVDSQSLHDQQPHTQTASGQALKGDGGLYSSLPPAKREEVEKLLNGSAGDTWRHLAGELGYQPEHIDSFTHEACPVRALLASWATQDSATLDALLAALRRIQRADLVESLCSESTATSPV
p75^NTR F136H (P08138, form named): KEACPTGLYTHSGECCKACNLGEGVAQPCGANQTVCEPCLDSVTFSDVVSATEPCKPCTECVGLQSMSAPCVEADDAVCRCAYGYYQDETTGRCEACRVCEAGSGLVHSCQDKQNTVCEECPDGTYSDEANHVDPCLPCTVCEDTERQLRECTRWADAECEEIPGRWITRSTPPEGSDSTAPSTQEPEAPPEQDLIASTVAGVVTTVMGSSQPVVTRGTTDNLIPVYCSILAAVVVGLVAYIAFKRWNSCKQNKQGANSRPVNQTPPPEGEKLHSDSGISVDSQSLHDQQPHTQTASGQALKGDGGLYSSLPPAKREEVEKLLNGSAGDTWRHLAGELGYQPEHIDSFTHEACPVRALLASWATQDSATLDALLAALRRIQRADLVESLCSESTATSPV
p75^NTR P150H (P08138, form named): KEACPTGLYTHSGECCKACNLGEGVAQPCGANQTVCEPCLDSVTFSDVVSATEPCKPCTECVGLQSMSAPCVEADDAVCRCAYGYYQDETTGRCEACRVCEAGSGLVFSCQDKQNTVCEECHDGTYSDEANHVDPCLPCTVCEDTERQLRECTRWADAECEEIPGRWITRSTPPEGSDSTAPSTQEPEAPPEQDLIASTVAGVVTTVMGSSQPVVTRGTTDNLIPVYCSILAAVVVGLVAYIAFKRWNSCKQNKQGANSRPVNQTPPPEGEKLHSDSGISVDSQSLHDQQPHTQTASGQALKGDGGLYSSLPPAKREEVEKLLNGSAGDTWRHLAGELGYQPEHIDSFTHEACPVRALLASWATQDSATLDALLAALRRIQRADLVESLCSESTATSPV
p75^NTR P150K (P08138, form named): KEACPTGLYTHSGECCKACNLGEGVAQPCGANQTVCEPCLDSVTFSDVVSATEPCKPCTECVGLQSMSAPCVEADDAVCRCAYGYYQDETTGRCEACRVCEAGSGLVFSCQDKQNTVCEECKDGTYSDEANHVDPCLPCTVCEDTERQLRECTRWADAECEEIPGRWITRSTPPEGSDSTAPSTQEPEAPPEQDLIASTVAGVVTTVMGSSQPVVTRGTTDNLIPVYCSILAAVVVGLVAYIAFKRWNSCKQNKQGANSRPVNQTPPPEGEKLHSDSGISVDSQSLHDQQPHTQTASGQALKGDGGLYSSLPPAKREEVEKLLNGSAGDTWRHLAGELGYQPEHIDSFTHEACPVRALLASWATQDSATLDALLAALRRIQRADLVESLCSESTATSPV
p75^NTR P166K (P08138, form named): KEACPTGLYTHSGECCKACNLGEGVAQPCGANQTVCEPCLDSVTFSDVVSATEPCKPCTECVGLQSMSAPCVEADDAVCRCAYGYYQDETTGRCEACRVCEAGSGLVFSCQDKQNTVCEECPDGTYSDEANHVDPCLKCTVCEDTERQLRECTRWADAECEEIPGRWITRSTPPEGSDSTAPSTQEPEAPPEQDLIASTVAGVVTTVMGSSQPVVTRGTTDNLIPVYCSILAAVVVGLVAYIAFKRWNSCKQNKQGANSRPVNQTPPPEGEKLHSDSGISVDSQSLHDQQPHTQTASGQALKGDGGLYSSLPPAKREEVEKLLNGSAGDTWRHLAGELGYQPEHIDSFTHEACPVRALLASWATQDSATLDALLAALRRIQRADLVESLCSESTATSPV
p75^NTR L165H (P08138, form named): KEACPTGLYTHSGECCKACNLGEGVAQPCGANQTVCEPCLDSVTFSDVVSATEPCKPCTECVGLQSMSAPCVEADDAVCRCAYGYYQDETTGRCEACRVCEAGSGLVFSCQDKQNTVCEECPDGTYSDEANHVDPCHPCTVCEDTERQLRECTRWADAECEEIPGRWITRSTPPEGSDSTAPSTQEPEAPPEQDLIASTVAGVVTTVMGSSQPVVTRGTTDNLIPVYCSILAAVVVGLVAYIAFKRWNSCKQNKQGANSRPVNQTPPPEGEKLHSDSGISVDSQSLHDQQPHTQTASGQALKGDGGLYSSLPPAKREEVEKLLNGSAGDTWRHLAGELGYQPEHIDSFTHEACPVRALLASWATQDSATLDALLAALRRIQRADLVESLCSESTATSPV
p75^NTR S137K (P08138, form named): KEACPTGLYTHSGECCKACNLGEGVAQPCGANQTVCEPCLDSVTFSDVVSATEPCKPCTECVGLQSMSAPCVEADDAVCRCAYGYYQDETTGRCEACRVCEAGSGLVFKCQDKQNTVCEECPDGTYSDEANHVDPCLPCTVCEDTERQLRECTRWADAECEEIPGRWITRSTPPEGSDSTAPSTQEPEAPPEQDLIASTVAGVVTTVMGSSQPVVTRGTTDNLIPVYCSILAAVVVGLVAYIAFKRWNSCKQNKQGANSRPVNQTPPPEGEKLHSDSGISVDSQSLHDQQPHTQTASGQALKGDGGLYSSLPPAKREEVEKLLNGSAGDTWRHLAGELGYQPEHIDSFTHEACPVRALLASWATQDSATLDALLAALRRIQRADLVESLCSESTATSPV
p75^NTR L165K (P08138, form named): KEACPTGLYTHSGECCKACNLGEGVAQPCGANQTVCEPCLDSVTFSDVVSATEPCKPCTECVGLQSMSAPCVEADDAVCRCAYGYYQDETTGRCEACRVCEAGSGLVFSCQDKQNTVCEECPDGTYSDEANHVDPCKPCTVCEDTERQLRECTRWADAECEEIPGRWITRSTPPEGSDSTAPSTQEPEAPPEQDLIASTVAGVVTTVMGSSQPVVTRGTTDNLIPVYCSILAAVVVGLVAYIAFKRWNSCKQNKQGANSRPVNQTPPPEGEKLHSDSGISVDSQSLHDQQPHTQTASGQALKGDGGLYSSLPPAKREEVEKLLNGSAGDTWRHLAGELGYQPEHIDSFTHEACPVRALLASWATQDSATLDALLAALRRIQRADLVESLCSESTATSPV
p75^NTR R182K (P08138, form named): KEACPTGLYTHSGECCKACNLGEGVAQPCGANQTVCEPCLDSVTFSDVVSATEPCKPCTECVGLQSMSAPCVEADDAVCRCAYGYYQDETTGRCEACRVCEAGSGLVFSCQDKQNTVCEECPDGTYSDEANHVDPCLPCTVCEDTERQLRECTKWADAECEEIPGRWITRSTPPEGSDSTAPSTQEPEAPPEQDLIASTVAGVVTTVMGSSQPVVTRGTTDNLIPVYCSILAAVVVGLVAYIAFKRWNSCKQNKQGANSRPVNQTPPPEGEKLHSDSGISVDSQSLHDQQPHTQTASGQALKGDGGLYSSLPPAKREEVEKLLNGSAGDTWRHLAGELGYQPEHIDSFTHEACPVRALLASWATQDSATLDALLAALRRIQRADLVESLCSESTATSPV
UniProt Q9Z0W1, residues 32-427: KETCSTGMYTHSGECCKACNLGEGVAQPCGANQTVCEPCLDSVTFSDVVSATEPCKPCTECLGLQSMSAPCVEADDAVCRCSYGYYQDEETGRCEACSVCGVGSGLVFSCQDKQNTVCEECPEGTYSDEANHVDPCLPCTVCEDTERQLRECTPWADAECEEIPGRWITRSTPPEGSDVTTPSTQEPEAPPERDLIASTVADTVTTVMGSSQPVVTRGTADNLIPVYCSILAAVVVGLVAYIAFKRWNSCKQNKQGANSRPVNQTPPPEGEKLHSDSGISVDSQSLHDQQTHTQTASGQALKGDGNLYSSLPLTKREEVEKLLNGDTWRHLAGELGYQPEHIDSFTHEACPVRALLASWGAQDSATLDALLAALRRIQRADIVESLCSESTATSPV
UniProt P07174, residues 30-425: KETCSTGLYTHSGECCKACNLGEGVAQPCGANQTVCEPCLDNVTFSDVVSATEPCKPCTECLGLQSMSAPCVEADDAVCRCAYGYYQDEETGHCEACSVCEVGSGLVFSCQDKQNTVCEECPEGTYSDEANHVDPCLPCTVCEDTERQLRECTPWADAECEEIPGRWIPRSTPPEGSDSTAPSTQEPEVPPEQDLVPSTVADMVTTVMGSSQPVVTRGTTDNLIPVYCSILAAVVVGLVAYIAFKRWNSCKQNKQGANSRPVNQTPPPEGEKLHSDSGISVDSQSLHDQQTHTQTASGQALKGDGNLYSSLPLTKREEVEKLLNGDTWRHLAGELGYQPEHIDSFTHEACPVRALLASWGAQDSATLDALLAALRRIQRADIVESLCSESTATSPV
UniProt P42081, residues 24-329: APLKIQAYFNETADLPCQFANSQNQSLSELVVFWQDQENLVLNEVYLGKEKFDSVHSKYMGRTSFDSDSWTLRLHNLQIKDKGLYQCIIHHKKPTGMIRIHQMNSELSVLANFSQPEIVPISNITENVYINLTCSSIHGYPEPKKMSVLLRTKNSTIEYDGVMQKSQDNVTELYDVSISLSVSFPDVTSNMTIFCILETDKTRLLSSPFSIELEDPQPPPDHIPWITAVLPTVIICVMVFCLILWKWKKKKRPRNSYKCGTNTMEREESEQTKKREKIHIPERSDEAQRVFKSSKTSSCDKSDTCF
UniProt Q00609, residues 38-306: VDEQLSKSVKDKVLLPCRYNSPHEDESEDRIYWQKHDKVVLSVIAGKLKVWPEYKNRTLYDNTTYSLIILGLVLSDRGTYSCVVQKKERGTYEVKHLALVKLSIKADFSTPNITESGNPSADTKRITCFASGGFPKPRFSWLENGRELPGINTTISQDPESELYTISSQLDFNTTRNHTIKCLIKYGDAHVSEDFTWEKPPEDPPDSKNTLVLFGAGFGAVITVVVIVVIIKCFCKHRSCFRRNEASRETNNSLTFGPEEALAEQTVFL

What was measured:
[1] = molecular target: mCD28-GFP (mouse) (UniProt P31041); assay: flow cytometry on cells; cell-cell binding of sorted stable HEK293 lines (B7-1-mCherry, B7-1N82E-mCherry, B7-2-mCherry) with GFP-tagged query cells; % cell bound
[2] = molecular target: human p75 neurotrophin receptor-GFP (human) (UniProt P08138); assay: as above
[3] = molecular target: mCTLA4-GFP (mouse) (UniProt P09793); assay: as above
[4] = molecular target: full-length human p75 neurotrophin receptor fused at the cytoplasmic C-terminus to GFP (human) (UniProt P08138); assay: flow cytometry on cells; B7-1–Fc or B7-1N82E–Fc titrated against cells expressing CTLA-4, CD28 or p75NTR; only the binder purified
[5] = molecular target: p75^NTR S137H (human) (UniProt P08138); assay: flow cytometry on cells; cell-cell conjugates, salt bridge suppressor screen: cells expressing p75NTR lysine or histidine mutants against cells expressing B7-1 D/E mutants or WT B7-1
[6] = molecular target: p75^NTR F136K (human) (UniProt P08138); assay: as above
[7] = molecular target: p75^NTR R182H (human) (UniProt P08138); assay: as above
[8] = molecular target: p75^NTR P166H (human) (UniProt P08138); assay: as above
[9] = molecular target: p75^NTR F136H (human) (UniProt P08138); assay: as above
[10] = molecular target: p75^NTR P150H (human) (UniProt P08138); assay: as above
[11] = molecular target: p75^NTR P150K (human) (UniProt P08138); assay: as above
[12] = molecular target: p75^NTR P166K (human) (UniProt P08138); assay: as above
[13] = molecular target: p75^NTR L165H (human) (UniProt P08138); assay: as above
[14] = molecular target: p75^NTR S137K (human) (UniProt P08138); assay: as above
[15] = molecular target: p75^NTR L165K (human) (UniProt P08138); assay: as above
[16] = molecular target: p75^NTR R182K (human) (UniProt P08138); assay: as above
[17] = molecular target: human p75 neurotrophin receptor-GFP (human) (UniProt P08138); assay: flow cytometry on cells; 750 nM hB7-1-Fc incubated with p75NTR-expressing cells alone or with 750 nM, 2 uM or 10 uM abatacept or Ig control; geoMean 647; only the binder purified
[18] = molecular target: human B7-1-mCherry fusion protein (human) (UniProt P33681); assay: flow cytometry on cells; high-throughput cell-cell screen: HEK293F query cells (C-terminal mCherry fusion) mixed 1:1 in 96-well format with cells each expressing one member of the Ig/TNFR superfamily library (C-terminal GFP); double-positive events as % bound; PBS 0.2% BSA, pH 7.4
[19] = molecular target: protein tyrosine phosphatase receptor type F-GFP (human) (UniProt P10586); assay: as above
[20] = molecular target: mouse p75^NTR-GFP (mouse) (UniProt Q9Z0W1); assay: flow cytometry on cells; cell-cell conjugates: cells expressing B7-1–mCherry of various mammalian species against cells expressing human, mouse or rat p75NTR-GFP
[21] = molecular target: full-length human p75 neurotrophin receptor fused at the cytoplasmic C-terminus to GFP (human) (UniProt P08138); assay: as above
[22] = molecular target: rat p75^NTR-GFP (rat) (UniProt P07174); assay: as above

| Substance | binding [5] | binding [6] | binding [7] | binding [8] | binding [9] | binding [10] | binding [11] | binding [12] | binding [13] | binding [14] | binding [15] | binding [16] | also measured |
| --- | --- | --- | --- | --- | --- | --- | --- | --- | --- | --- | --- | --- | --- |
| B7-1N82E-mCherry (from UniProt P33681 35-288) (ligand) | – | – | – | – | – | – | – | – | – | – | – | – | binding [1]: binds; binding [2]: no binding; binding [3]: binds |
| B7-1N82E–Fc (from UniProt P33681 35-233) (Fc fusion) | – | – | – | – | – | – | – | – | – | – | – | – | binding [4]: no binding |
| B7-2-mCherry (from UniProt P42081 24-329) (ligand) | – | – | – | – | – | – | – | – | – | – | – | – | binding [1]: binds; binding [2]: no binding; binding [3]: binds |
| hB7-1 K139D–mCherry (from UniProt P33681 35-288) (ligand) | no binding | no binding | no binding | no binding | no binding | no binding | no binding | no binding | no binding | no binding | no binding | no binding | – |
| hB7-1 R63D–mCherry (from UniProt P33681 35-288) (ligand) | no binding | no binding | no binding | no binding | no binding | no binding | no binding | no binding | no binding | no binding | no binding | no binding | – |
| hB7-1-mIgG2A (from UniProt P33681 35-233) (Fc fusion) | – | – | – | – | – | – | – | – | – | – | – | – | binding [17]: binds |
| human p75 neurotrophin receptor-GFP (from UniProt P08138 29-427) | – | – | – | – | – | – | – | – | – | – | – | – | binding [18]: binds; binding [19]: binds |
| mouse B7-1–mCherry (from UniProt Q00609 38-306) (ligand) | – | – | – | – | – | – | – | – | – | – | – | – | binding [20]: no binding; binding [21]: no binding; binding [22]: no binding |

More lines, main results first:

| binding [5] | binding [6] | binding [7] | binding [8] | binding [9] | binding [10] | binding [11] | binding [12] | binding [13] | binding [14] | binding [15] | binding [16] | Substance | also measured |
| --- | --- | --- | --- | --- | --- | --- | --- | --- | --- | --- | --- | --- | --- |
| no binding | no binding | no binding | no binding | no binding | no binding | no binding | no binding | no binding | no binding | no binding | no binding | hB7-1 K120D–mCherry (from UniProt P33681 35-288) (ligand) | – |
| no binding | no binding | no binding | no binding | no binding | no binding | no binding | no binding | no binding | no binding | no binding | no binding | hB7-1 K127D–mCherry (from UniProt P33681 35-288) (ligand) | – |
| no binding | binds | no binding | no binding | binds | no binding | no binding | no binding | no binding | no binding | no binding | no binding | hB7-1N82E–mCherry (from UniProt P33681 35-288) (ligand) | – |
